These results are taken from article PMC12136788.

Some of the results follow.

First the molecules themselves.
B1: chr2:32414998:32415099:+|CDS|ENSG00000115760|unk|FALSE|unique (ssRNA)
RNA: GGGAGUUCUACAGUCCGACGAUCCCAUGUUUAUUAGCUGGAGGUUUAUUAACAUAUAAAUCUCCUGCUACCUCACCCAUUAGUAGUAAUUCUCACAGGUCACUGGAUGGUUUAAGCAGAACUCAGGGUGAAAGUAUAUCAGAACAACAGAGGAUUGAGCAUCA
B2: ENSG00000198589:be:win_8551|CDS_3pUTR|ENSG00000198589|bound_else_gene|NA|bound_elsewhere_windowed (ssRNA)
RNA: GGGAGUUCUACAGUCCGACGAUCCGCUACUGAUGGUGACAGCUGUACAUCAACUCUGCCCCUAGGAUGAGCAGAAGUACCUGGAGCAUCAUUCUCUUCUACCACAUCUGAAUGUAACUUAAAUUUGCUCAAAGAAGCAAAAUACAACAGAGGAUUGAGCAUCA
B3: chr5:179730620:179730726:+|3pUTR|ENSG00000127022|msi1_unk|FALSE|overlapping (ssRNA)
RNA: GGGAGUUCUACAGUCCGACGAUCGAGCUUUAAAUCAUUAGAGCUUAAAUUGUCAGAUCGUUCAUUGCCUUUCCAGGGUUAUUUAGUAAAGUUUGUUGAAAACAAAAACGCCUUUUCUUGGUUCUUUUUUCAGUUAUUUUGAAGCAACAGAGGAUUGAGCAUCA
B4: ENSG00000197006:stop:overlap|stop_codon|ENSG00000197006|stop_codon|NA|stop_codon (ssRNA)
RNA: GGGAGUUCUACAGUCCGACGAUCUUGCCCUUGUCCUCCCCUUUCAUCCCUAUGUGGAAAACGGUAAGUGUGGUCAGUCAGGCUAGCUCUUACUGAGGAUAGCUGUUUAUUGGUAUUUGUGAUUUUGUGCUGUGUACAAUUAAACAACAGAGGAUUGAGCAUCA
B5: chr14:50159683:50159784:-|CDS|ENSG00000100485|unk|total|mutant (ssRNA)
RNA: GGGAGUUCUACAGUCCGACGAUCGAGGAAAAUACAAAUUUGUGAUAAAGAAGAUACUUGUGAGCACAAGCAUGCAUUUGAAUCCGUAUCCAAAGAUGAGAACAGCAUAAUAUUUGCUGCUAAGUCUGCUGAAGAAAAAAACAACAACAGAGGAUUGAGCAUCA
B6: ENSG00000136010:stop:overlap|stop_codon|ENSG00000136010|stop_codon|NA|stop_codon (ssRNA)
RNA: GGGAGUUCUACAGUCCGACGAUCACUUAGGUGAGGAAGCUCUAAAUGAAUAUCUCAAAACCAAGACGGUGACACUGGAAUAUUAGAGCAACACCAUCAUCAGGAAAGCCUUGACAGACAGCCCUUUACAACUCUGGACACACUCAACAGAGGAUUGAGCAUCA
B7: chr7:74195289:74195308:+|CDS_3pUTR|ENSG00000106682|msi1_unk|total|mutant (ssRNA)
RNA: GGGAGUUCUACAGUCCGACGAUCGCGACGCCCCUCAAUCAAGCCGCCAAUCCCAACUCUGCUAUCUUCGGGGGUGCCAGGCCCCGAGAGGAAGUCGUUCAAAAGGAGCAAGAAUGAGCCUGCGGUUGGGAGGGAAUGGGGCGUCAACAGAGGAUUGAGCAUCA
B8: chr2:10440579:10440691:-|3pUTR|ENSG00000115758|unk|total|mutant (ssRNA)
RNA: GGGAGUUCUACAGUCCGACGAUCUAACUGCAAGUUCCGCUUGAAUUAAGGGAUUUGGGGGGACCAUGUAACUUAAUUACUGCCCGUUUUGAAAUGUCUUUGUAAGAGCCGGGUCGCCAUGAUGCAGCCAUAUGGAAGACCCGGCAACAGAGGAUUGAGCAUCA
B9: chr9:91409354:91409467:-|CDS|ENSG00000165030|unk|FALSE|unique (ssRNA)
RNA: GGGAGUUCUACAGUCCGACGAUCAAUGAAAGACAGUGGCUACAAAGUUUCUGACCCAGAGAACUUGUAUUUGAAGCAGGGGAUAGCAAACUUAUCUGCAGAGGUUGUCUCACUCAAGAGACUUAUAGCCACACAACCAAUCUCCAACAGAGGAUUGAGCAUCA
B10: chr12:118033712:118033825:-|3pUTR|ENSG00000176871|unk|FALSE|unique (ssRNA)
RNA: GGGAGUUCUACAGUCCGACGAUCCCUCCGCUGGGAACGAUGGCUUCUGCCUAGUACCUAUCCUUGUGUUUCUGAUGCAGUGGUAGCAUUGGUUCAAGUUCUCUCCUGCUGUGGUCAGAGUUGCUUCGAUGUUGGCCAAGUGCUCAACAGAGGAUUGAGCAUCA
B11: chr1:62654060:62654161:-|CDS|ENSG00000116641|unk|total|mutant (ssRNA)
RNA: GGGAGUUCUACAGUCCGACGAUCCUUGUUUUCUACCCAUCUCUUAUCCCAACUUUUUACAAAGGUGCCCCUUACCGAAGCAGCCGAUCCAGUGGAUUUGGAAGAUUACCUCAUUACUCAUCCUUUGGCUGUGGAUUCUGGGCCCAACAGAGGAUUGAGCAUCA
B12: chr7:2728618:2728646:-|3pUTR|ENSG00000146535|msi1_unk|FALSE|overlapping (ssRNA)
RNA: GGGAGUUCUACAGUCCGACGAUCUUUAAUUUCACUGUUAAUCCUUAUUGUCUUUUUUAUUAAGAUGUUGGAAAAGCAGGAGGUAGUUGUGCCUCAAUUAUUGCAAAAAUGUAACAAUAAAGUUCCUCAAAAUAAGAUCUGUUCCAACAGAGGAUUGAGCAUCA
B13: chr1:94517210:94517403:+|3pUTR|ENSG00000117528|unk|total|mutant (ssRNA)
RNA: GGGAGUUCUACAGUCCGACGAUCAACAAAUUAACCCGAUACAGAAUAAUGGAGAACAAGUUGUUAAAACAUUUAAUAUUAUACCGGAUAUUGCUAAUUGUGUAUAUGUUGGUUUAAUUAAUAAUAUGUACUAAGAAUGUCCUUCAACAGAGGAUUGAGCAUCA
B14: chr21:25881051:25881209:-|3pUTR|ENSG00000142192|msi1_unk|FALSE|overlapping (ssRNA)
RNA: GGGAGUUCUACAGUCCGACGAUCUUUUUUUUCCAUGACUGCAUUUUACUGUACAGAUUGCUGCUUCUGCUAUAUUUGUGAUAUAGGAAUUAAGAGGAUACACACGUUUGUUUCUUCGUGCCUGUUUUAUGUGCACACAUUAGGCAACAGAGGAUUGAGCAUCA

In this assay the target is MSI1 full-length (mouse, UniProt Q61474 1-362). Description: nsRBNS (natural sequence RNA bind-n-seq); RBNS binding buffer (assumed for nsRBNS): 25 mM Tris pH 7.5, 150 mM KCl, 3 mM MgCl2, 0.01% Triton X-100, 500 ug/ml BSA, 20 U/ml SUPERase-In, 4 C; UNK is unkempt and MSI1 is Musashi-1; names of the RNAs are library labels; protein concentration not given here; high values mean tight binding.
Chain of UniProt Q61474 (Q61474 whole entry): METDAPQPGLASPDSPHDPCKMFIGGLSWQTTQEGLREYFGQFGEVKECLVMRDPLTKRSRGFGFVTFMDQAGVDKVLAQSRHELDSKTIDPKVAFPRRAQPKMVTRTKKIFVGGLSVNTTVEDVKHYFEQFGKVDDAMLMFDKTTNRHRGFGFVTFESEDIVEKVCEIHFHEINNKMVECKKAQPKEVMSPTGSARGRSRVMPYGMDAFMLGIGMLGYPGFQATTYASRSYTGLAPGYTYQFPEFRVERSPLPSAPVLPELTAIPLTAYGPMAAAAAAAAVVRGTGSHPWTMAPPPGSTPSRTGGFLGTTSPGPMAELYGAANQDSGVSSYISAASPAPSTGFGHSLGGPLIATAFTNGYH
On to B1, for which the binding signal is 0.596 enrichment R.
The result for B2 reads 0.51 enrichment R.
For B3, the binding signal came out at 1.41 enrichment R.
The result for B4 reads 0.761 enrichment R; that for B5, 0.295 enrichment R.
The molecule B6 yielded a binding signal of 0.312 enrichment R.
B7 registered a binding signal of 0.371 enrichment R.
Molecule B8 had a binding signal of 0.57 enrichment R.
Consider B9, for which the binding signal was 0.662 enrichment R.
Molecule B10 gave a binding signal of 0.295 enrichment R.
The molecule B11 yielded a binding signal of 0.571 enrichment R.
The molecule B12 had a binding signal of 0.334 enrichment R.
For B13 the value was 0.723 enrichment R; for B14, 1.09 enrichment R.
